According to the supplement of paper PMC10369915:
Some of the results follow. Rule as the data show it: active = 3.2 or more and inactive = the rest. Most of these values are background signal.

Legend:
Assay in all cases: enrichment score (SH2-bound / input frequency) (ratio); bacterial display of known human phosphotyrosine sites (pTyr-Var adds point mutants) read by sequencing; higher = stronger binding; tyrosines were phosphorylated by kinases first
Conditions in all cases: peptide library: pTyr-Var
SHP2 C-SH2 domain E139D = target: SHP2 C-SH2 domain E139D
[1] = target: SHP2 C-SH2 domain wild-type
SHP2 N-SH2 domain L43F = target: SHP2 N-SH2 domain L43F
SHP2 N-SH2 domain T42A = target: SHP2 N-SH2 domain T42A
SHP2 N-SH2 domain T52S = target: SHP2 N-SH2 domain T52S
[2] = target: SHP2 N-SH2 domain wild-type

Measured: enrichment score
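Also: displayed peptides selected on beads carrying the immobilized SH2 domain, with library peptides lacking any tyrosine serving as negative controls.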

B1: GATA5_Y208_C210G (peptide)
chain: DGTGHYLGNAC
inactive: SHP2 C-SH2 domain E139D 0.639 | [1] 0.752 | SHP2 N-SH2 domain L43F 0.624 | SHP2 N-SH2 domain T42A 0.576 | SHP2 N-SH2 domain T52S 0.596 | [2] 0.828

B2: GBP6_Y334 (peptide)
chain: RAADYYSQQMA
inactive: SHP2 C-SH2 domain E139D 0.585 | [1] 0.642 | SHP2 N-SH2 domain L43F 0.528 | SHP2 N-SH2 domain T42A 0.468 | SHP2 N-SH2 domain T52S 0.527 | [2] 0.746

B3: GATA2_Y376_C373R_YF (peptide)
chain: NARGLYFKLHN
inactive: SHP2 C-SH2 domain E139D 1.04 | [1] 1.21 | SHP2 N-SH2 domain L43F 0.869 | SHP2 N-SH2 domain T42A 0.857 | SHP2 N-SH2 domain T52S 1.12 | [2] 1.17

B4: GCDH_Y398 (peptide)
chain: GISDEYHVIRH
inactive: SHP2 C-SH2 domain E139D 0.896 | [1] 0.785 | SHP2 N-SH2 domain L43F 0.808 | SHP2 N-SH2 domain T42A 0.68 | SHP2 N-SH2 domain T52S 0.822 | [2] 0.903

B5: GBA_Y451_D448V (peptide)
chain: TKVTFYKQPMF
inactive: SHP2 C-SH2 domain E139D 0.88 | [1] 0.86 | SHP2 N-SH2 domain L43F 0.85 | SHP2 N-SH2 domain T42A 2.85 | SHP2 N-SH2 domain T52S 1.14 | [2] 1.03

B6: GCG_Y110_A115V (peptide)
chain: SDVSSYLEGQV
inactive: SHP2 C-SH2 domain E139D 0.847 | [1] 0.984 | SHP2 N-SH2 domain L43F 0.797 | SHP2 N-SH2 domain T42A 0.813 | SHP2 N-SH2 domain T52S 0.644 | [2] 0.687

B7: GATM_Y100_P105L_YF (peptide)
chain: VKANTYEKFWL
inactive: SHP2 C-SH2 domain E139D 0.849 | [1] 1.16 | SHP2 N-SH2 domain L43F 0.797 | SHP2 N-SH2 domain T42A 0.885 | SHP2 N-SH2 domain T52S 0.682 | [2] 0.982

B8: GCDH_Y398_V400M (peptide)
chain: GISDEYHMIRH
inactive: SHP2 C-SH2 domain E139D 1.12 | [1] 0.856 | SHP2 N-SH2 domain L43F 0.716 | SHP2 N-SH2 domain T42A 0.698 | SHP2 N-SH2 domain T52S 0.81 | [2] 0.929

B9: GBA_Y244_G241R (peptide)
chain: QPRDIYHQTWA
inactive: SHP2 C-SH2 domain E139D 0.818 | [1] 0.987 | SHP2 N-SH2 domain L43F 0.792 | SHP2 N-SH2 domain T42A 0.64 | SHP2 N-SH2 domain T52S 0.842 | [2] 0.912

B10: GATA5_Y208_H207R (peptide)
chain: DGTGRYLCNAC
inactive: SHP2 C-SH2 domain E139D 0.575 | [1] 0.527 | SHP2 N-SH2 domain L43F 0.529 | SHP2 N-SH2 domain T42A 0.488 | SHP2 N-SH2 domain T52S 0.73 | [2] 0.697

B11: GATM_Y100_K102N_YF (peptide)
chain: VKANTYENFWP
inactive: SHP2 N-SH2 domain L43F 3.14
active: SHP2 C-SH2 domain E139D 3.3 | [1] 3.79 | SHP2 N-SH2 domain T42A 4.56 | SHP2 N-SH2 domain T52S 3.88 | [2] 3.52

B12: GANC_Y43_Q44R (peptide)
chain: SKKSTYRALLD
inactive: SHP2 C-SH2 domain E139D 0.699 | [1] 0.603 | SHP2 N-SH2 domain L43F 0.593 | SHP2 N-SH2 domain T42A 0.582 | SHP2 N-SH2 domain T52S 0.535 | [2] 0.586

B13: GCDH_Y398_R402W (peptide)
chain: GISDEYHVIWH
inactive: SHP2 C-SH2 domain E139D 1.04 | [1] 1 | SHP2 N-SH2 domain L43F 0.987 | SHP2 N-SH2 domain T42A 0.818 | SHP2 N-SH2 domain T52S 0.886 | [2] 0.957

B14: GATM_Y100_P105L (peptide)
chain: VKANTYEKYWL
inactive: SHP2 C-SH2 domain E139D 0.963 | [1] 0.928 | SHP2 N-SH2 domain L43F 0.857 | SHP2 N-SH2 domain T42A 0.623 | SHP2 N-SH2 domain T52S 0.909 | [2] 0.995

B15: GBA_Y412_N409S (peptide)
chain: ITSLLYHVVGW
active: SHP2 C-SH2 domain E139D 3.21
inactive: [1] 3.1 | SHP2 N-SH2 domain L43F 2.91 | SHP2 N-SH2 domain T42A 2.55 | SHP2 N-SH2 domain T52S 2.65 | [2] 3.17

B16: GBA_Y412_W417G (peptide)
chain: ITNLLYHVVGG
inactive: SHP2 C-SH2 domain E139D 2.02 | [1] 1.83 | SHP2 N-SH2 domain L43F 2 | SHP2 N-SH2 domain T42A 1.63 | SHP2 N-SH2 domain T52S 1.98 | [2] 1.75

B17: GATM_Y100 (peptide)
chain: VKANTYEKYWP
inactive: SHP2 C-SH2 domain E139D 0.897 | [1] 0.83 | SHP2 N-SH2 domain L43F 0.816 | SHP2 N-SH2 domain T42A 0.898 | SHP2 N-SH2 domain T52S 0.762 | [2] 0.787

B18: GATA1_Y78_Q76E (peptide)
chain: PVFEVYPLLNC
inactive: SHP2 C-SH2 domain E139D 0.898 | [1] 1.09 | SHP2 N-SH2 domain L43F 0.91 | SHP2 N-SH2 domain T42A 0.806 | SHP2 N-SH2 domain T52S 0.756 | [2] 0.954

B19: GATM_Y103_P105L (peptide)
chain: NTYEKYWLFYQ
inactive: SHP2 C-SH2 domain E139D 1.37 | [1] 1.41 | SHP2 N-SH2 domain L43F 1.38 | SHP2 N-SH2 domain T42A 0.994 | SHP2 N-SH2 domain T52S 1.07 | [2] 1.58

B20: GBA_Y412_G416S (peptide)
chain: ITNLLYHVVSW
inactive: SHP2 N-SH2 domain L43F 3.14 | SHP2 N-SH2 domain T42A 2.86 | SHP2 N-SH2 domain T52S 2.91
active: SHP2 C-SH2 domain E139D 3.82 | [1] 3.44 | [2] 3.38

B21: GATAD2B_Y317 (peptide)
chain: TSSAIYMNLAS
inactive: SHP2 C-SH2 domain E139D 2.66 | [1] 2.35 | SHP2 N-SH2 domain L43F 2.31 | SHP2 N-SH2 domain T42A 2.33 | SHP2 N-SH2 domain T52S 2.52 | [2] 2.19

B22: GATM_Y100_YF (peptide)
chain: VKANTYEKFWP
inactive: SHP2 C-SH2 domain E139D 1.14 | [1] 1.13 | SHP2 N-SH2 domain L43F 0.833 | SHP2 N-SH2 domain T42A 1.02 | SHP2 N-SH2 domain T52S 0.819 | [2] 1.38

B23: GATA5_Y208_D203E (peptide)
chain: EGTGHYLCNAC
inactive: SHP2 C-SH2 domain E139D 0.806 | [1] 0.687 | SHP2 N-SH2 domain L43F 0.668 | SHP2 N-SH2 domain T42A 0.589 | SHP2 N-SH2 domain T52S 0.633 | [2] 0.747

B24: GATA1_Y223_D218G (peptide)
chain: GRTGHYLCNAC
inactive: SHP2 C-SH2 domain E139D 1.35 | [1] 1.32 | SHP2 N-SH2 domain L43F 1.29 | SHP2 N-SH2 domain T42A 1.25 | SHP2 N-SH2 domain T52S 1.1 | [2] 1.38

B25: GATA1_Y223_D218Y (peptide)
chain: YRTGHYLCNAC
inactive: SHP2 C-SH2 domain E139D 1.77 | [1] 1.65 | SHP2 N-SH2 domain L43F 1.59 | SHP2 N-SH2 domain T42A 1.27 | SHP2 N-SH2 domain T52S 1.75 | [2] 1.25

B26: GBA_Y451_F450I (peptide)
chain: TKDTIYKQPMF
active: SHP2 N-SH2 domain T42A 3.71
inactive: SHP2 C-SH2 domain E139D 0.788 | [1] 0.971 | SHP2 N-SH2 domain L43F 1.72 | SHP2 N-SH2 domain T52S 1.78 | [2] 1.12

B27: GBA_Y451_K452Q (peptide)
chain: TKDTFYQQPMF
inactive: SHP2 C-SH2 domain E139D 0.712 | [1] 0.583 | SHP2 N-SH2 domain L43F 1.59 | SHP2 N-SH2 domain T52S 1.52 | [2] 0.764
active: SHP2 N-SH2 domain T42A 3.74

B28: GBP6_Y334_A331S_YF (peptide)
chain: RASDFYSQQMA
inactive: SHP2 C-SH2 domain E139D 0.704 | [1] 0.546 | SHP2 N-SH2 domain L43F 0.648 | SHP2 N-SH2 domain T42A 0.465 | SHP2 N-SH2 domain T52S 0.69 | [2] 0.832

B29: GAPDH_Y255 (peptide)
chain: EKPAKYDDIKK
inactive: SHP2 C-SH2 domain E139D 0.778 | [1] 0.685 | SHP2 N-SH2 domain L43F 0.682 | SHP2 N-SH2 domain T42A 0.734 | SHP2 N-SH2 domain T52S 0.536 | [2] 0.88

B30: GBP6_Y334_A331S (peptide)
chain: RASDYYSQQMA
inactive: SHP2 C-SH2 domain E139D 0.723 | [1] 0.766 | SHP2 N-SH2 domain L43F 0.818 | SHP2 N-SH2 domain T42A 0.735 | SHP2 N-SH2 domain T52S 0.673 | [2] 0.886

B31: GCG_Y110 (peptide)
chain: SDVSSYLEGQA
inactive: SHP2 C-SH2 domain E139D 0.659 | [1] 0.641 | SHP2 N-SH2 domain L43F 0.615 | SHP2 N-SH2 domain T42A 0.567 | SHP2 N-SH2 domain T52S 0.692 | [2] 0.665

B32: GCH1_Y175 (peptide)
chain: RIVEIYSRRLQ
inactive: SHP2 C-SH2 domain E139D 0.217 | [1] 0.265 | SHP2 N-SH2 domain L43F 0.228 | SHP2 N-SH2 domain T42A 0.157 | SHP2 N-SH2 domain T52S 0.321 | [2] 0.17

B33: GATM_Y103_P105L_YF (peptide)
chain: NTFEKYWLFFQ
inactive: SHP2 C-SH2 domain E139D 2.43 | [1] 2.28 | SHP2 N-SH2 domain L43F 2.33 | SHP2 N-SH2 domain T42A 2.25 | SHP2 N-SH2 domain T52S 2.31 | [2] 2.52

B34: GATA2_Y376_C373R (peptide)
chain: NARGLYYKLHN
inactive: SHP2 C-SH2 domain E139D 1.27 | [1] 1.11 | SHP2 N-SH2 domain L43F 1.11 | SHP2 N-SH2 domain T42A 1.1 | SHP2 N-SH2 domain T52S 1.21 | [2] 1.44

B35: GATD3A_Y250_L248V (peptide)
chain: ETAVHYIHDGI
inactive: SHP2 C-SH2 domain E139D 0.822 | [1] 0.789 | SHP2 N-SH2 domain L43F 0.811 | SHP2 N-SH2 domain T42A 0.787 | SHP2 N-SH2 domain T52S 0.657 | [2] 0.863

B36: GBA3_Y174_M172I (peptide)
chain: LSVISYDLGMF
active: SHP2 N-SH2 domain L43F 6.78 | SHP2 N-SH2 domain T52S 7.64
inactive: SHP2 C-SH2 domain E139D 1.77 | [1] 1.31 | SHP2 N-SH2 domain T42A 2.61 | [2] 2.1

B37: GARS1_Y414 (peptide)
chain: FIGRIYLYLTK
inactive: SHP2 C-SH2 domain E139D 1.32 | [1] 1.33 | SHP2 N-SH2 domain L43F 1.02 | SHP2 N-SH2 domain T42A 1.05 | SHP2 N-SH2 domain T52S 1.28 | [2] 1.1
